Measured values reported in PubChem BioAssay AID1745853 (National Center for Advancing Translational Sciences (NCATS), 2022).
Values joined by “and” are separate entries in the source; they are usually repeats but may differ in a detail not shown here. Equal entries are not always repeated. This is one part of the list. These are further read-outs of the screen, such as a control signal, another cell line or another target. No call is given for them.

Experiments:
Assay in all cases: Primary Screen for Target Class Profiling of Small Molecule Inhibitors of Methyltransferases
[1] = molecular target: Glycine N-methyltransferase (Homo sapiens) (UniProt Q14749); details: purified enzyme, MTase-Glo SAH luminescence; measured here: GNMT inhibition; at 40 µM; stronger effect = lower value
Outline: (§1)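 Each enzyme was assayed with SAM and its substrate. SAH formation detected by MTase-Glo luminescence; single-point 40 uM screen[…].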

[2] = molecular target: Guanidinoacetate N-methyltransferase (Homo sapiens) (UniProt Q14353); details: purified enzyme, MTase-Glo SAH luminescence; measured here: GAMT inhibition; at 40 µM; stronger effect = lower value
Outline: as §1

[3] = molecular target: Histamine N-methyltransferase (Homo sapiens) (UniProt P50135); details: purified enzyme, MTase-Glo SAH luminescence; measured here: HNMT inhibition; at 40 µM; stronger effect = lower value
Outline: as §1

[4] = molecular target: Nicotinamide N-methyltransferase (Homo sapiens) (UniProt P40261); details: purified enzyme, MTase-Glo SAH luminescence; measured here: NNMT inhibition; at 40 µM; stronger effect = lower value
Outline: as §1

[5] = molecular target: Phenylethanolamine N-methyltransferase (Homo sapiens) (UniProt P11086); details: purified enzyme, MTase-Glo SAH luminescence; measured here: PNMT inhibition; at 40 µM; stronger effect = lower value
Outline: as §1
% is set by controls: 0 for no effect and ±100 for the full control effect.

SMILES | activity change, negative = inhibition [1] | activity change, negative = inhibition [2] | activity change, negative = inhibition [3] | activity change, negative = inhibition [4] | activity change, negative = inhibition [5]
COc1ccc(-c2cc3n(n2)CC(C)(C(=O)NCc2ccccc2)N(c2ccc(Cl)cc2)C3=O)cc1 (stereo unspecified) | 1.06% | 4.67% | 4.78% | 2.06% | -1.74%
OC1CCC(Nc2ncc3nc(Nc4c(F)cc(F)cc4F)n([C@H]4CCOC4)c3n2)CC1 (stereo partly specified) | -2.08% | -7.65% | 7.18% | -22.7% | -1.53%
O=C(CCc1c[nH]c2ccccc12)NC1CCc2n[nH]c(=O)n2CC1 (stereo unspecified) | -2.03% | -3.36% | 0.183% | -5.46% | -6.73%
CCN1C(=O)Cc2ccccc2C1C(=O)N(C)Cc1ccco1 (stereo unspecified) | -12% | -6.36% | -3.45% | -13.1% | -12.2%
Cc1ccc(Cn2c(=O)c3ccccc3n3c(CCC(=O)N4CCN(C5CCCCC5)CC4)nnc23)cc1 | -8.87% | 4.84% | -4.66% | 5.77% | -5.3%
Cc1ccccc1-c1nc(Cn2ccnc2C(C)C)c(C)o1 | -9.43% | -13.1% | -18.6% | -21% | -10.1%
CCCN1C(=O)c2c(-n3cccc3)c3cc(C)ccc3n2CC1(C)C(=O)NC1CCCC1 (stereo unspecified) | -7.95% | 3.49% | -7.01% | -20.7% | -4.71%
O=S(=O)(c1cccnc1)N1CC(F)(F)C[C@H]1c1nc(C2CC2)no1 | 0.704% | 0.544% | 4.06% | -2.98% | -1.16%
Cc1ccccc1CNC(=O)C1(C)Cc2ccccc2C(=O)N1Cc1ccc(C(F)(F)F)cc1 (stereo unspecified) | 13.8% | 3.33% | 9.69% | 7.49% | 9.1%
C=CC(=O)Nc1cccc(CN2C(=O)N(c3c(Cl)c(OC)cc(OC)c3Cl)Cc3cnc(NCCCCN(CC)CC)nc32)c1 | -31.3% | -5.87% | -83.7% | -23.8% | -4.14%
Cc1c(NC(=O)OC[C@@H]2COCCN2)cn2ncnc(Nc3ccc4c(cnn4Cc4cccc(F)c4)c3)c12 | -7.85% and -24% | 16.9% and 23.2% | -1.87% and -10.9% | -20.2% and -37.1% and -13.5% | 4.07% and -0.878% and -3.26%
COc1cccc(C(=O)N2CC3(Cc4ccccc4CN3[S+](C)(=O)[O-])C2)c1 | -7.42% | -6.38% | -1.13% | -12.5% | -7.69%
CC(=O)Nc1c2n(c3ccccc13)CC(C)(C(=O)NC1CCCC1)N(CCC1=CCCCC1)C2=O (stereo unspecified) | -5.87% | 0.577% | -5.21% | -4.7% | -0.815%
O=C(c1ccc(-c2ccc(Cl)cc2)o1)N(Cc1ccccn1)c1ccc(N2CCNCC2)cc1 | – | 15.1% | – | -25.1% | 1.65%
CC1(C)C(=O)N(CC2CCOCC2)[C@H]2CN(Cc3cccnc3N)C[C@H]2[S+]1(=O)[O-] | -1.93% | -0.249% | -1.43% | 0.802% | -1.24%
Cc1ccc(Cn2c(=O)c3ccc(C(=O)NC(C)C)cc3n3c(SCC(=O)NC(C)C)nnc23)cc1 | 6.46% | 0% | 10.4% | -6.05% | 1.59%
O=C1CN(Cc2ccc(Br)cc2)S(=O)(=O)c2ccccc2N1Cc1cccc(F)c1 | -2.54% | 1.2% | -4.63% | -7.19% | -7.82%
CCOc1ccc(N(C(=O)c2cccnc2)S(=O)(=O)c2ccc3c(c2)n(C)c(=O)n3C)cc1 | -1.97% | 0.77% | 2.8% | -5.44% | -3.7%
CC1(C(=O)NC2CCCCCC2)Cn2c(cc3ccccc32)C(=O)N1Cc1cccnc1 (stereo unspecified) | 6.11% | 1.31% | 8.36% | 2.93% | 3.29%
O=c1cc(N2CCOCC2)oc2c(Nc3ccccc3)nccc12 | -12.5% | -15.8% | -14.1% | -44.2% | -16.2%

SMILES | activity change, negative = inhibition [1] | activity change, negative = inhibition [2] | activity change, negative = inhibition [3] | activity change, negative = inhibition [4] | activity change, negative = inhibition [5]
CN1C(=O)c2cc(C(=O)NCCCN3CCCC3)nn2CC1(C)C(=O)NCc1ccccc1 (stereo unspecified) | 6.43% | 0% | 6.55% | 10.2% | 6.46%
C[C@@H](c1ccccc1)N(C(N)=NC#N)c1cccc2ncccc12 | 6.24% | 2.81% | 11.4% | -6.53% | 5.85%
O=C1CC2CCN(Cc3coc(-c4ccccc4)n3)CC2CCN1 (stereo unspecified) | -3.39% | -0.689% | -3.31% | -0.309% | -5.43%
Cn1c(COc2cccc(CN3CCCC3)c2Cl)nnc1C1CC(N)C1 (stereo unspecified) | -8.27% | -5.44% | -71.9% | -10.7% | -3.55%
CC(C)CNC(=O)c1ccc2c(=O)n(Cc3ccccc3)c3nn(CC(=O)c4ccccc4)c(=O)n3c2c1 | 0.662% | 6.23% | 7.7% | 1.42% | 2.85%
COC(=O)c1ncn2c1C(=O)N(c1ccc(OC)c(Cl)c1)C(C)(C(=O)NC1CCCC1)C2 (stereo unspecified) | -1.12% | 7.48% | -5.21% | -5.24% | -3.46%
COc1ccc(-c2cc3n(n2)CC(C)(C(=O)NCc2ccccc2OC)N(CCC2=CCCCC2)C3=O)cc1 (stereo unspecified) | -1.72% | 2.92% | -2.34% | -6.57% | -19.8%
COc1nc2sc(C(=O)NC3CC3)c(N)c2c(C)c1Cl | -11.5% | 2.45% | -3.78% | -15.5% | -2.57%
COc1c(-c2ccc(O)cc2)cc(OC)c2c1oc1cc(O)c(OC3OC(CO)C(O)C3O)cc12 (stereo unspecified) | -10.3% | -6.11% | -19.4% | -16% | -1.41%
C=C1CC[C@H](O)CC1=C/C=C1\CCC[C@]2(C)[C@@H]([C@H](C)/C=C/[C@H](C)C(C)C)CC[C@@H]12 | -12.2% | 9.44% | 8.73% | -11.2% | 1.57%
CCOC(=O)c1cc2n(n1)CC(C)(C(=O)NC1CCCCC1)N(c1cc(Cl)ccc1OC)C2=O (stereo unspecified) | 0.017% | 0% | -3.8% | 3.03% | 1.49%
CCc1cccc2c(C(CC(=O)N3CCCCC3)c3cccc(OC)c3)c[nH]c12 (stereo unspecified) | -7.62% | -16.2% | -5.86% | -23.5% | -10.7%
O=C(N[C@@H]1CCOC[C@H]1Oc1cccc(F)c1)c1cnc2ccccn2c1=O | -8.33% | -9.6% | -4.37% | -17.6% | -10.3%
CN1C(=O)c2cc(NC(=O)c3ccccc3Cl)ccc2N2CCN=C12 | 1.55% | 0% | 8.07% | -0.993% | 5.49%
O=C(NC1CCN(c2nc3ncccc3o2)C1)c1ccccc1F (stereo unspecified) | -5.8% | -12.8% | -5.48% | -22.6% | -10.6%
CC(C)CCn1c(=O)c2ccccc2n2c(SCC(=O)NCc3ccccc3)nnc12 | 3.72% | -5.53% | 9.96% | 0.274% | 4.05%
Cn1c(=O)c(-c2c(Cl)cccc2Cl)cc2cnc(Nc3cccc(C(=O)O)c3)nc21 | 2.62% | 7.36% | 10.2% | -10.5% | 5.17%
CC(/C=C/C1(O)C2(C)COC1(C)CC(=O)C2)O[C@@H]1O[C@H](CO)[C@@H](O)[C@H](O)[C@H]1O (stereo partly specified) | 4.81% | 4% | 10.7% | -6.42% | 5.18%
CC1(C(=O)NCc2ccccc2)Cn2c(ccc2-c2ccco2)C(=O)N1Cc1ccc(Cl)cc1 (stereo unspecified) | 2.33% | 0% | 6.21% | 2.06% | 0.925%
CNC(=O)c1ccccc1Nc1nc(Nc2ccc3c(c2OC)CCCC(N2CCN(CCO)CC2)C3)ncc1Cl (stereo unspecified) | -27.2% | – | -53.1% | – | –

SMILES | activity change, negative = inhibition [1] | activity change, negative = inhibition [2] | activity change, negative = inhibition [3] | activity change, negative = inhibition [4] | activity change, negative = inhibition [5]
O=C(NC1CCc2n[nH]c(=O)n2CC1)c1ccc(Cn2ccnc2)o1 (stereo unspecified) | -1.62% | -4.85% | -1.3% | -0.303% | 2.25%
CCCCN1C(=O)CC[C@H]2CN(C(=O)CCn3cccc3)CC[C@H]21 | -4.79% | -8.08% | -2.06% | -10% | -7.24%
CNC(=O)N1CCC(C2CCN(C(=O)c3cnccc3C)C2)CC1 (stereo unspecified) | -2.39% | -2.4% | 0.105% | 0.402% | 7.62%
O=C(CCc1nnc2n(CCc3ccccc3)c(=O)c3ccccc3n12)N1CC=C(c2ccccc2)CC1 | -6.42% | 3.66% | -4.14% | -5.9% | -5.77%
CCN(CC)C(=O)[C@@H]1C[C@@H](n2cc(Cn3c(C)nc4ccccc43)nn2)CN1 | -5.75% | -7.66% | -2.33% | -10.6% | -4.66%
Cc1noc(C)c1-c1cc2cc(CO)oc2c(-c2ccc([S+](C)(=O)[O-])cc2)n1 | -14.7% | -5.43% | -9.89% | -15% | -3.85%
CC1C/C=C/C=C\CCCCC(O)C/C=C/C(=O)O1 (stereo unspecified) | 0.004% | 1.62% | 7.68% | -14.7% | -9.29%
O=C1NC(=O)c2cc(Nc3ccc(F)cc3)c(Nc3ccc(F)cc3)cc21 | – | -12.3% | – | -29.2% | -14.8%
CCc1noc(-c2cn(C3CCN(C(=O)C4(c5ccccc5)CC4)C3)nn2)n1 (stereo unspecified) | -3.81% | -0.395% | 0.989% | -4.78% | -0.508%
COc1cccc(NC(=O)CCc2nnc3n(Cc4ccccc4)c(=O)c4ccccc4n23)c1 | 0.314% | 0% | 6.59% | 5.05% | 2.6%
NC(=O)C1(N2CCCCC2)CCN(c2nccc(-c3ccncc3)n2)CC1 | -9.27% | -6.63% | -7.81% | -9.41% | -4.1%
COc1ccc([C@@H]2Sc3ccccc3N(CCN(C)C)C(=O)[C@@H]2OC(C)=O)cc1 | 8.83% | 0.059% and 5.49% | 15.8% | -13.6% and -9.56% | -0.383% and 2.88%
CC1OC(OC2CCC3(C)C(CCC4(C)C3CC=C3C5CC(C)(C)CCC5(C(=O)OC5OC(CO)C(O)C(O)C5O)CCC34C(=O)O)C2(C)C)C(O)C(O)C1O (stereo unspecified) | 5.95% | 4.78% | 1.81% | -8.61% | 6.29%
COc1ccc(N2C(=O)c3cc4ccc(OC)cc4n3CC2(C)C(=O)NC2CCCCC2)c(OC)c1 (stereo unspecified) | -11% | 4.41% | -1.27% | -24.3% | -1.36%
COC(=O)CCC1(C)C(C(C)(C)O)C(O)CC2(C)Oc3c(C)c4c(c(OC)c3CC21)C(=O)OC4 (stereo unspecified) | 0.473% | 4.41% | 4.53% | -12.3% | 3%
C/C1=C\C[C@]2(C)C(=O)C(O)=C([C@H](C)CO)[C@H]2C/C=C(\C)[C@@H](O)CC/C(C)=C/CC1 | -6.48% | -12.9% | -1.16% | -22.4% | -8.97%
Cc1cc2c3c([nH]c2cc1S(=O)(=O)NCCN1CCN(c2ccccc2F)CC1)CCCC3=O | -2.69% | 0.862% | 5.09% | 3.92% | 9.35%
CC(=O)NCCNc1cc(Cl)nn2c(-c3cccc(S(=O)(=O)N(C)C)c3)c(C)nc12 | – | 3.04% | – | -11.9% | -0.259%
COc1ccc2c(c1)C(=O)N(CCc1ccc(S(=O)(=O)NC(=O)NC3CCCCC3)cc1)C(=O)C2(C)C | -22.3% | 2.63% | -1.83% | -22.8% | -9.69%
